# In all, about 310,000 compounds went through this assay and about 18,000 (5.8%) were called active. The inconclusive results got no clear call from the source; some entries with a clear call stand among them for comparison. The call rests on the fitted dose curve; in most records, active means well fitted inhibition curve with a large enough effect; inconclusive means small, poorly fitted or top-dose-only effect, or another doubt; inactive means no such curve, though single readings can be large or run the other way. No potency is given beside an inconclusive call; the fits are too rough.
# Assay: Primary qHTS for delayed death inhibitors of the malarial parasite plastid, 48 hour incubation
# Settings: P. falciparum luciferase growth in erythrocytes; series mostly up to 28.7 µM; activity change, negative = inhibition: at the top concentration
# Outline: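 Parasite viability was followed by luminescence of a genomically integrated firefly luciferase. Cultures held 0.1% parasitemia at 2% hematocrit (final), incubated under 5% CO2 at 37 C.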
# On the % scale 0 is the no-effect control and ±100 the full control effect; potency means the concentration at half of the fitted maximal effect; tags describe the fitted curve by direction and shape.
SMILES,Potency,"activity change, negative = inhibition"
CCOC(=O)CC1CCCCN1C(=O)CCCn1nnnc1CN1CCC(C)CC1 (stereo not drawn),"inconclusive [inhibitor, partial curve, poor fit]",
CC(=O)Nc1ccc(S(=O)(=O)N(C2=NCC(C)S2)c2ccccc2)cc1 (stereo not drawn),"inconclusive [inhibitor, partial curve]",
CC1CCN(CCCNC(=O)CCc2nnc3n(CCc4ccccc4)c(=O)c4ccccc4n23)CC1,"inconclusive [inhibitor, single point]",
COC(=O)CCC(=O)OC1(C)C(=O)C=C2C=C(C3CC3)N(c3cccc(C#N)c3)C=C2C1=O (stereo not drawn),"inconclusive [inhibitor, single point]",
CC(C)N(CCCNC(=O)c1nn(C)c2c1CS(=O)(=O)c1ccccc1-2)Cc1ccccc1,,inactive: -24.2%
COc1ccc(-n2c3c(cc(C(=O)NCc4ccco4)c2=O)C(=O)CC(C)(C)C3)cc1,"inconclusive [inhibitor, partial curve]",
COc1ccccc1S(=O)(=O)Cc1ccc(C(=O)NCc2ccco2)o1,,inactive: 13%
O=C(NCc1ccc(F)cc1)C1CCN(C(=O)NCc2ccccc2)CC1,,inactive: -4.33%
Cc1ccc2nc(-c3cccnc3)c(NC3CCCC3)n2c1,"inconclusive [inhibitor, single point]",
O=c1c2ccccc2[nH]c(=S)n1CCN1CCCCC1,,inactive: 2.86%
CC(C)(C)NC(=O)C(c1ccccn1)N(C(=O)c1ccc2c(c1)OCCO2)C1CCCC1 (stereo not drawn),"inconclusive [inhibitor, single point]",
CCCCCSc1cc(O)c(C(CNC)C(C)C)cc1OC (stereo not drawn),active: 0.415 µM,
CCOC(=O)C1(CCc2ccccc2)CCN(Cc2cnc(N(C)C)s2)CC1,"inconclusive [inhibitor, partial curve]",
COc1cc(S(=O)(=O)N(Cc2cccc(OC)c2OC)CC2CCCO2)ccc1-n1cnnn1 (stereo not drawn),"inconclusive [inhibitor, full curve]",
CCOc1ccc(N2C(=O)c3cccnc3C2Nc2ccc(F)cc2)cc1 (stereo not drawn),"inconclusive [inhibitor, single point]",
CCOc1ccc(NC(=O)CC2C(=O)N(c3ccc(OC)cc3)C(=S)N2Cc2ccccn2)cc1 (stereo not drawn),"inconclusive [inhibitor, partial curve]",
NC(=S)N=Nc1ccc(NN=C(N)N)cc1,active: 1.2 µM,
COc1ccc(C(=O)NC2CCCCC2)cc1OC1CCN(C(C)C)CC1,"inconclusive [inhibitor, partial curve]",
Cc1ccc(-n2c(=O)[nH]c3cc(C(=O)NC4CCN(Cc5ccccc5)CC4)ccc3c2=O)cc1,"inconclusive [inhibitor, partial curve]",
CCCN(CC(=O)Nc1ccccc1C)C(=O)CSc1ccccc1C,"inconclusive [inhibitor, single point]",
COc1ccccc1NC(=O)CSc1nc(N)c(C#N)cc1C#N,"inconclusive [inhibitor, partial curve, poor fit]",
COCCOc1ccc(C(F)(F)F)cc1NC(=O)COC(=O)c1cc([N+](=O)[O-])ccc1N1CCOCC1,"inconclusive [inhibitor, partial curve]",

SMILES,Potency,"activity change, negative = inhibition"
CCOc1ccc(OCC)c(NC(=O)CSc2nnc(Cn3cnc4ccccc43)n2C)c1,"inconclusive [inhibitor, partial curve, poor fit]",
CC(C(=O)O/N=C(\N)c1ccccn1)c1ccc([N+](=O)[O-])cc1 (stereo not drawn),,inactive: 34.1%
CCC1CN(C(=O)N2CCC(C(=O)NCCc3ccccc3)CC2)c2ccccc2O1 (stereo not drawn),"inconclusive [inhibitor, partial curve, poor fit]",
Oc1ccccc1Nc1nc(-c2ccccc2O)nc2ccccc12,active: 1.04 µM,
Cc1ccc(C)c2[nH]c(=O)c(C(c3nnnn3Cc3ccccc3)N3CCc4ccccc4C3)cc12 (stereo not drawn),active: 10.4 µM,
CC1Cn2c(nc3sc4c(c3c2=O)CC(C)(C)OC4)N1CCO (stereo not drawn),,inactive: -0.453%
Cc1[nH]c(=O)[nH]c(=O)c1S(=O)(=O)N1CCCC(C(=O)NCCC2=CCCCC2)C1 (stereo not drawn),"inconclusive [inhibitor, single point]",
COc1ccccc1-c1cc(C(=O)NC(C)c2ccccc2)no1 (stereo not drawn),"inconclusive [inhibitor, full curve, poor fit]",
Cc1ccc(-n2c(P(C)(=O)O)nc3ccccc32)cc1,,inactive: 32.5%
N#Cc1ccc(OCC(O)CN2CCN(c3ncc(C(F)(F)F)cc3Cl)CC2)cc1 (stereo not drawn),"inconclusive [inhibitor, partial curve, poor fit]",
Cc1ccccc1C(=O)N/N=C1\SCC(=O)N1Cc1ccco1,,inactive: -10.6%
CC(Oc1ccccc1F)C(=O)NNC(=O)C1CC(=O)N(c2ccc3c(c2)OCCO3)C1 (stereo not drawn),"inconclusive [inhibitor, full curve]",
CSc1nccn1C(=O)c1ccccc1[N+](=O)[O-],,inactive: 25.7%
O=C(Cc1ccc(Nc2nc(=S)[nH]c3ccccc23)cc1)NC1CCCCC1,"inconclusive [inhibitor, single point]",
COc1ccc(-c2cn[nH]c2-c2ccc(OC)cc2O)cc1,active: 9.28 µM,
Cc1ccc(Oc2nc3ccccc3n3cccc23)cc1,,inactive: -23.2%
CCOc1ccc(NC(=O)CN(C)C(=O)c2n[nH]c(=O)c3ccccc23)cc1OCC,"inconclusive [inhibitor, single point]",
COc1ccc2[nH]c(C(=O)O)c(CCC(=O)O)c2c1,,inactive: 1.35%
N#Cc1ccc(C23CC4(C2)[C@H](CN(CC2CCCCC2)[C@@H]4c2ccccc2)C3c2ccccc2)cc1 (stereo partly drawn),"inconclusive [inhibitor, single point]",
CCOC(=O)C1(CCCc2ccccc2)CCN(CCCn2cccn2)CC1,"inconclusive [inhibitor, full curve, poor fit]",
CC(C)Cn1c(N)c(C(=O)COC(=O)c2cc(-c3ccccc3)nc3ccccc23)c(=O)n(C)c1=O,"inconclusive [inhibitor, partial curve]",

# From PubChem BioAssay AID504832 (National Center for Advancing Translational Sciences (NCATS), 2011)
